Assay results: PubChem BioAssay (Tox21)
Values joined by “and” are separate entries in the source; they are usually repeats but may differ in a detail not shown here. Identical values can stand only once. The shares of active, inactive and inconclusive entries below differ from those in the screen. For part of these data: Where the call is inconclusive, the potency comes from a doubtful curve fit. Some compounds were tested as several samples or in several runs, with calls that do not always agree. Active and inactive are the calls of the source. Unless noted, calls follow the shape of the dose curve; as a rule, active = well fitted curve in the direction sought with a large enough effect in the repeat runs; inconclusive = weak or mixed curves; inactive = no such curve, though single readings can be large; an effect the other way counts as inactive or inconclusive.

Columns and labels:
[1] = qHTS assay to identify small molecule antagonists of the estrogen related receptor (ERR) signaling pathway from Tox21 library - cell viability counter screen (AID 1224834); also: potency is read from the fitted curve at half-maximal effect; nearly all actives have a fitted effect of over 30% in size
In short: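 CellTiter-Fluor fluorescence, read after 30 min at 37 C, measures viability of ERR cells. Cells plated at 2,000/well and incubated 6 h before pin-tool compound addition, then exposed 17.5 hours at 37 C.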

[2] = qHTS assay to identify small molecule agonists of the constitutive androstane receptor (CAR) signaling pathway - cell viability counter screen (AID 1224836); also: potency is read from the fitted curve at half-maximal effect; nearly all actives have a fitted effect of over 45% in size
In short: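 Counter screen multiplexed with the CAR reporter readout: HepG2 cells co-transfected with hCAR and the CYP2B6-2.2kb construct receive a 15-concentration compound series and 0.75 uM PK11195 (final), then CellTiter-Fluor fluorescence is read after 23 h.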

[3] = qHTS assay to identify small molecule antagonists of the estrogen related receptor signaling pathway with the pleiotropic PPARgamma coactivator (PGC) from Tox21 10K library - cell viability counter screen (AID 1224840; active = well fitted cell-killing curve with a large enough effect in the repeat runs, not every such curve was filed as active; inconclusive = weak or mixed curves, or effect the other way; inactive = no such curve, though single readings can be large or run the other way; also: potency is read from the fitted curve at half-maximal effect; nearly all actives have a fitted effect of over 40% in size)
In short: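 Counter-screen for cytotoxicity: after 17.5 h compound exposure at 37 C, CellTiter-Fluor reagent added to PGC/ERR cells for 30 min and fluorescence read. Cells were seeded at 2,000 per well 6 h before dosing.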

[4] = molecular target: Thyrotropin receptor (Homo sapiens) (UniProt P16473); assay: qHTS assay to identify small molecule agonists of the thyroid stimulating hormone receptor (TSHR) signaling pathway (AID 1224843; calls by dose curve; also: nearly all actives have a fitted effect of over 45% in size; also: potency is read from the fitted curve at half-maximal effect; as to activation: % is scaled to controls: 0 for no effect and ±100 for the full control effect); conditions: TSHR-HEK293 cells, cAMP HTRF, agonist mode, 30 min; activation: at 92.4 µM (top of the series) unless noted
In short: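 A cell-based cAMP HTRF format was run in TSHR-transfected HEK293 cells, 800 per well. Treatment: 30 min, room temperature. Detection: 1 h with labelled cAMP and anti-cAMP cryptate. Concentration-response over 15 points, three replicates.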

[5] = qHTS assay to identify small molecule agonists of the hypoxia (HIF-1) signaling pathway - cell viability counter screen (AID 1224844; calls by dose curve; also: potency is read from the fitted curve at half-maximal effect; nearly all actives have a fitted effect of over 50% in size)
In short: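 Cytotoxicity measured by CellTiter-Glo ATP luminescence in the wells also read for beta-lactamase signal. Cells were HRE-bla ME-180 (2,000/well, 0.5% dialyzed FBS), exposed to compounds for 17 h at 37C.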

[6] = qHTS assay to identify small molecule agonists of H2AX - cell viability counter screen (AID 1224847; calls by dose curve; also: nearly all actives have a fitted effect of over 30% in size; also: potency is read from the fitted curve at half-maximal effect)
In short: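 We seed wild-type CHO-K1 cells overnight, treat them for 3 hr at 37C with compounds in 15-concentration series, and quantify remaining viability by CellTiter-Glo luminescence.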

[7] = qHTS RealTime-Glo MT Cell Viability Assay in HepG2 cells - 24 hour (AID 1224867); also: potency is read from the fitted curve at half-maximal effect; nearly all actives have a fitted effect of over 50% in size
In short: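 HepG2 cells were seeded at 600 cells/well together with NanoLuc luciferase and a cell-permeant prosubstrate, preincubated 5 h at 37 C/5% CO2, then pin-dosed with compounds in DMSO. Nonlytic luminescence from viable cells was read at each time point.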

[8] = qHTS RealTime-Glo MT Cell Viability Assay in HEK293 cells - 32 hour (AID 1224868); also: potency is read from the fitted curve at half-maximal effect; nearly all actives have a fitted effect of over 50% in size
In short: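 HEK293 cells were seeded at 600 cells/well together with NanoLuc luciferase and cell-permeant prosubstrate, preincubated 5 h at 37 C/5% CO2, then given compound in DMSO by pintool. Luminescence from viable-cell prosubstrate reduction was read repeatedly over 40 h.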

[9] = qHTS assay to identify small molecule antagonists of the constitutive androstane receptor (CAR) signaling pathway - cell viability counter screen (AID 1224837); also: potency is read from the fitted curve at half-maximal effect; nearly all actives have a fitted effect of over 45% in size
In short: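 Cytotoxicity counter-screen: CellTiter-Fluor fluorescence after 23 h compound exposure (15-point qHTS) in double-stable HepG2-CYP2B6-hCAR cells, with 50 nM CITCO added.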

[10] = qHTS assay to identify small molecule antagonists of the estrogen related receptor signaling pathway with the pleiotropic PPARgamma coactivator (PGC) from Tox21 10K library (AID 1224841; call rule not given here; also: actives are mostly falling curves and most rising ones were filed inactive; nearly all actives have a fitted effect of over 50% in size; also: potency is read from the fitted curve at half-maximal effect)
In short: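 Luminescence (One-Glo, 30 min at room temperature) after 18 h compound treatment at 37 C of PGC/ERR reporter cells plated at 2,000 cells/well and settled 6 h beforehand.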

[11] = qHTS assay to identify small molecule agonists of H2AX (AID 1224845; active = well fitted activation curve with a large enough effect in the signal ratio in the repeat runs, not every such curve was filed as active; inconclusive = weak or mixed curves; the % refers to the signal ratio; also: potency is read from the fitted curve at half-maximal effect); conditions: CHO-K1 phospho-H2AX Ser139 HTRF, 3 h; activation (H2AX phosphorylation): at 154 µM (top of the series) unless noted
In short: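 Phospho-H2AX Ser139 measured by HTRF (ex 320 nm; em 665 and 620 nm) after 24 hr antibody incubation. Compounds, 15 concentrations, 0.76% DMSO, were applied to CHO-K1 cells for 3hr at 37C before lysis.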

[12] = qHTS assay to identify small molecule agonists of the hypoxia (HIF-1) signaling pathway (AID 1224846; active = well fitted activation curve with a large enough effect in the signal ratio in the repeat runs, not every such curve was filed as active; inconclusive = weak or mixed curves; the % refers to the signal ratio; also: potency is read from the fitted curve at half-maximal effect); conditions: HRE-bla ME-180 cells, beta-lactamase ratio, 17 h; activation: at 76.8 µM (top of the series) unless noted
In short: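 Compounds added to ME-180 cells carrying hypoxia-response-element beta-lactamase reporter (0.5% dialyzed FBS, 5 h preplating), 17 h at 37C; agonist activity detected by CCF4-AM B/G FRET read-out.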

[13] = qHTS assay to identify small molecule antagonists of the estrogen related receptor (ERR) signaling pathway from Tox21 library (AID 1224848)
In short: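 ERR cell line, 2,000 cells/well. 6 h settle, then compound (DMSO) added; 18 h at 37 C; ONE-Glo luminescence after 30 min RT.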

[14] = molecular target: Nuclear receptor subfamily 1 group I member 3 (Homo sapiens) (UniProt Q14994); assay: qHTS assay to identify small molecule agonists of the constitutive androstane receptor (CAR) signaling pathway (AID 1224839); also: potency is read from the fitted curve at half-maximal effect; nearly all actives have a fitted effect of over 15% in size
In short: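 A 15-concentration quantitative screen uses HepG2 cells co-transfected stably with human CAR and CYP2B6-2.2kb reporter. Treatment lasts 24 h with 0.75 uM PK11195 final present; ONE-Glo luminescence is the signal.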

[15] = qHTS assay to identify small molecule agonists of the estrogen related receptor (ERR) signaling pathway from Tox21 library (AID 1224849; calls by dose curve; also: % is scaled to controls: 0 for no effect and ±100 for the full control effect; nearly all actives have a fitted effect of over 15% in size); conditions: ERR reporter cell line, ONE-Glo luciferase, 18 h; at 92.4 µM (top of the series) unless noted
In short: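 Luminescent agonist read-out (One-Glo, 30-minute room-temperature incubation) following 18-hour compound treatment at 37 C of the ERR cell line, which had been plated 6 hours before dosing.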
Tags tell the direction and shape of the fitted curve or compound fluorescence and quenching.

UniProt P16473, sequence (P16473 whole entry, looked up): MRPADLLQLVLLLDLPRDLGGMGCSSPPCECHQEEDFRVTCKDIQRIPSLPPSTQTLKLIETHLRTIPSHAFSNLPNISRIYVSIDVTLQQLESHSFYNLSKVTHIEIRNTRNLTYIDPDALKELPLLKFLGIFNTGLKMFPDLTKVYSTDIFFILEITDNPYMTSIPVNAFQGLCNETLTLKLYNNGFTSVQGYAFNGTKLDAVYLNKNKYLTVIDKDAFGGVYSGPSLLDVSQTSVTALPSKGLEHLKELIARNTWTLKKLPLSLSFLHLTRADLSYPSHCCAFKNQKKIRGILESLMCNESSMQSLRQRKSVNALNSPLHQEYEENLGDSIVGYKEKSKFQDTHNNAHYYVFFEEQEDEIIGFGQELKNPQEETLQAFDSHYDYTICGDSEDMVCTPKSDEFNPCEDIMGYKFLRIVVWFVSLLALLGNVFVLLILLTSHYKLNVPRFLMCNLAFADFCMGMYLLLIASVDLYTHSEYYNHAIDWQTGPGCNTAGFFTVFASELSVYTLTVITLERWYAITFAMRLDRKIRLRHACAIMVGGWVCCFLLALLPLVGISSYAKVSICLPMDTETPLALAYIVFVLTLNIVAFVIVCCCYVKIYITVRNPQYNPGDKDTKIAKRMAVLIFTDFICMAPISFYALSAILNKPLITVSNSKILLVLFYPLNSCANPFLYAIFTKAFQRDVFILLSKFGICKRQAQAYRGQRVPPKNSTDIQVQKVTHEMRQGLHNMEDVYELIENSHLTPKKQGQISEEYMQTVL
UniProt Q14994, sequence (Q14994 whole entry, looked up): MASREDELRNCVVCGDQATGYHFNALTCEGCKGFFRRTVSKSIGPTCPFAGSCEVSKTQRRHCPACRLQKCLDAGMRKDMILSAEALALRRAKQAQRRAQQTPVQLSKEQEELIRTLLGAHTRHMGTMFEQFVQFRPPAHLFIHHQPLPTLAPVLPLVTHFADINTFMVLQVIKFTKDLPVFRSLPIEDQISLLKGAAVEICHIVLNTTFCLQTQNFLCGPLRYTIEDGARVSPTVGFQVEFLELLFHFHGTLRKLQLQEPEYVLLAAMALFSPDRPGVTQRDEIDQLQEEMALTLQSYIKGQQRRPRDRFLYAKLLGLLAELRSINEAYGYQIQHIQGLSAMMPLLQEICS

Q: Which results are given for `CCCCCCCCCCCC[N+](C)(C)C`?
A: Potency [1]: inconclusive: 8.63 µM [cytotoxic, full curve] and inconclusive: 24.3 µM [cytotoxic, partial curve]; Potency [2]: inconclusive: 24.3 µM [cytotoxic, full curve] and inconclusive: 24.3 µM [cytotoxic, partial curve] and inconclusive: 38.6 µM [cytotoxic, partial curve]; Potency [3]: inconclusive: 27.2 µM [cytotoxic, single point] and inconclusive: 15.4 µM [cytotoxic, partial curve] and inconclusive: 27.3 µM [cytotoxic, partial curve]; Potency [4]: inconclusive: 27.2 µM [activator, partial curve]; activation [4]: inconclusive: 32.2% and inconclusive: 36%; Potency [5]: inconclusive: 8.69 µM [rising, partial curve] and inconclusive: 15.5 µM [rising, partial curve]; Potency [6]: inconclusive: 56.6 µM [cytotoxic, partial curve]; Potency [7]: inconclusive: 24.5 µM [falling, partial curve] and inconclusive: 43.6 µM [falling, partial curve] and inconclusive: 49 µM [falling, partial curve]; Potency [8]: inconclusive: 3.89 µM [cytotoxic, full curve, poor fit]

Q: Which results are given for `CC(=O)OC(OC(C)=O)c1ccc([N+](=O)[O-])o1`?
A: Potency [1]: active: 62.2 µM; Potency [2]: inconclusive: 69.8 µM [cytotoxic, single point]; Potency [9]: active: 62.2 µM; Potency [3]: inconclusive: 69.8 µM [cytotoxic, single point]; Potency [10]: inconclusive: 39.2 µM [falling, partial curve, poor fit]; Potency [4]: active: 27.8 µM; Potency [5]: inconclusive: 55.9 µM [cytotoxic, single point]; Potency [11]: inconclusive: 57.6 µM [falling, partial curve]; Potency [12]: inconclusive: 44.4 µM [falling, partial curve]; Potency [13]: inconclusive: 69.8 µM [inhibitor, single point]; Potency [7]: inconclusive: 55.9 µM [falling, single point]

Q: For `CN(C)c1ccc(N=Nc2ccccc2C(=O)O)cc1`, which Potency [1] is on record?
A: active: 48.6 µM

Q: And the Potency [2]?
A: inconclusive: 54.5 µM [cytotoxic]

Q: What about the Potency [9] of the same molecule?
A: inconclusive: 54.5 µM [cytotoxic, partial curve]

Q: What about the Potency [14] of the same molecule?
A: active: 10.9 µM

Q: What about the Potency [3] of the same molecule?
A: active: 27.3 µM

Q: What about the Potency [5] of the same molecule?
A: inconclusive: 21.9 µM [cytotoxic, single point]

Q: What about the Potency [11] of the same molecule?
A: inconclusive: 40.1 µM [falling, partial curve]

Q: What about the Potency [12] of the same molecule?
A: inconclusive: 19.5 µM [falling, full curve]

Q: What about the Potency [6] of the same molecule?
A: inconclusive: 14.2 µM [rising, full curve]

Q: And the Potency [7]?
A: inconclusive: 43.6 µM [falling, partial curve]

Q: With `COc1ccc2cc3[n+](cc2c1OC)CCc1cc2c(cc1-3)OCO2` as the molecule, how does the Potency [1] read?
A: inconclusive: 13.3 µM [cytotoxic]

Q: And the Potency [2]?
A: inconclusive: 30.9 µM [cytotoxic, partial curve]

Q: And the Potency [9]?
A: inconclusive: 38.8 µM [cytotoxic, partial curve]

Q: And the Potency [14]?
A: inconclusive: 34.6 µM [activator, partial curve, poor fit]

Q: And the Potency [3]?
A: inconclusive: 30.9 µM [cytotoxic, partial curve]

Q: And the Potency [4]?
A: inconclusive: 48.9 µM [partial curve]

Q: And the activation [4]?
A: inconclusive: -13.8% [at 42.5 µM]

Q: What about the Potency [11] of the same molecule?
A: inconclusive: 80.6 µM [cytotoxic, partial curve]

Q: Which Potency [1] does the source give for `CC/C(=C(/CC)c1ccc(O)cc1)c1ccc(O)cc1` here?
A: active: 60.6 µM and inconclusive: 61.1 µM [cytotoxic, partial curve]

Q: What about the Potency [9] of the same molecule?
A: inconclusive: 68 µM [cytotoxic, partial curve, poor fit]

Q: And the Potency [3]?
A: inconclusive: 241 nM and inconclusive: 68.6 µM [cytotoxic]

Q: And the Potency [4]?
A: inconclusive: 42.9 µM [activator, partial curve] and inconclusive: 54.5 µM [activator, partial curve]

Q: And the activation [4]?
A: inconclusive: 29.8% [at 42.5 µM]

Q: And the Potency [5]?
A: inconclusive: 54.5 µM [cytotoxic, single point] and inconclusive: 61.6 µM [cytotoxic, single point]

Q: What about the Potency [6] of the same molecule?
A: inconclusive: 127 µM [cytotoxic, partial curve, poor fit]

Q: What about the Potency [8] of the same molecule?
A: inconclusive: 21.3 µM [cytotoxic, partial curve]

Q: For `COc1ccc(-c2nc3ccc(C4=NNC(=O)CC4C)cc3[nH]2)cc1` (stereo not given), which Potency [1] is on record?
A: active: 13.3 µM

Q: What about the Potency [14] of the same molecule?
A: active: 3.76 µM

Q: What about the Potency [10] of the same molecule?
A: inactive

Q: And the Potency [4]?
A: active: 9.44 µM

Q: And the Potency [6]?
A: inactive

Q: And the activity change, positive = activation [15]?
A: inconclusive: -0.243% [at 42.5 µM]

Q: And the Potency [8]?
A: active: 8.49 µM

Q: What does the source list for `Cc1ccc(CCn2c3c(c4cc(Cl)ccc42)CN(C)CC3)cn1`?
A: Potency [1]: inconclusive: 33.5 µM [cytotoxic, single point]; Potency [9]: inconclusive: 33.5 µM [cytotoxic, partial curve, poor fit]; Potency [3]: inconclusive: 33.5 µM [cytotoxic, single point]; activation [4]: inconclusive: -14.6% [at 42.5 µM]; Potency [5]: inconclusive: 21.3 µM [cytotoxic, partial curve, poor fit]; Potency [6]: inactive; Potency [8]: active: 19 µM
